Data: PubChem BioAssay AID651820 (National Center for Advancing Translational Sciences (NCATS), 2012)
Hit rate of the full screen: of about 340,000 compounds, about 12,000 (3.5%) were called active. Inconclusive results, whose numbers are uncertain, are shown with a selection of clear calls. Calls come from the whole dose curve; as a rule, active = well fitted inhibition curve with a large enough effect; inconclusive = small, poorly fitted or top-dose-only effect, or another doubt; inactive = no such curve, though single readings can be large or run the other way. No potency is given beside an inconclusive call; the fits are too rough.

Assay: qHTS Assay for Inhibitors of Hepatitis C Virus (HCV)
Settings: Huh7.5.1 HCVcc-Cre (HCVcc is cell-culture hepatitis C virus) infection, luciferase reporter, 44 h; series mostly up to 41.8 µM
Outline: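 Whole-lifecycle infectious HCVcc-Cre system; cells 1,000/well, compound then virus (~0.5 moi) added 4 h after plating, 44 h culture. Luciferase read 15 sec following 15 min substrate incubation, room temp.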
Potency is the fitted concentration of half-maximal effect; tags give direction and shape of the fitted curve.

| Structure (SMILES) | Potency |
| --- | --- |
| CC(C)COc1ccc(C(=O)N(CC(=O)Nc2ccccc2C(F)(F)F)Cc2ccco2)cc1 | inconclusive [inhibitor, single point] |
| CCOC(=O)/C(=C\C=C1/Sc2ccccc2N1CC)C(C)=O | inconclusive [inhibitor, single point] |
| CCOC(=O)C1CCN(C(=O)COc2ccc(Br)cc2Br)CC1 | inconclusive [inhibitor, single point] |
| C=CCn1c(N2CCCCCC2)nc2c1c(=O)[nH]c(=O)n2C | inactive |
| Cc1cc(C)cc(N=c2c([N+](=O)[O-])nn(-c3cccc(Cl)c3)n2O)c1 | inconclusive [inhibitor, partial curve] |
| COc1ccc(OC)c(CN2CCN(c3ccc(S(=O)(=O)N4CCCC4)cn3)CC2)c1 | inconclusive [inhibitor, single point] |
| CC(C)NC(=S)NC(c1ccccc1)(c1ccccc1)c1ccccc1 | inconclusive [inhibitor, partial curve, poor fit] |
| COc1ccc(C(=O)Nc2ccc(NC(=O)c3ccco3)cc2)cc1 | inconclusive [inhibitor, single point] |
| CCCN1CCc2cc(O)cc3c2[C@H]1Cc1ccc(O)c(O)c1-3 | inconclusive [inhibitor, partial curve, poor fit] |
| COc1ccccc1C1=CC(=O)C[C@H](c2ccc3c(c2)OCO3)C1 | inconclusive [inhibitor, partial curve] |
| CCOC(=O)N1CCN(c2cc3nccnc3cc2F)CC1 | inactive |
| Cc1cccc2[nH]c3c(N4CC=C(c5ccc(F)cc5)CC4)ncnc3c12 | active: 12.6 µM |
| Cc1ccc(NC(=O)CCC(=O)N/N=C/c2ccc([N+](=O)[O-])o2)cc1C | inconclusive [inhibitor, single point] |
| O=C(Nc1nnc(SCc2ccccc2)s1)c1cccc([N+](=O)[O-])c1 | inactive |
| COc1ccccc1CN1C[C@@H]2C[C@@H](c3ccc(C)c(C)c3)N3CCC[C@@]23C1=O | inconclusive [inhibitor, full curve, poor fit] |
| Cc1onc(-c2ccccc2)c1C(=O)NNC(=S)NC(=O)c1ccc(F)cc1 | inconclusive [inhibitor, single point] |
| CN(c1ccccc1)c1nc(N)c([N+](=O)[O-])c(N2CCCCC2)n1 | inconclusive [inhibitor, partial curve] |
| O=C(Nc1cccc(O)c1)C1CC(c2cccc(Br)c2)=NO1 (centres undefined) | inconclusive [inhibitor, partial curve] |
| Cc1ccc(F)cc1NC(=O)Cc1nn(C)c(=O)c2ccccc12 | inconclusive [inhibitor, single point] |
| O=C(Cc1ccc(Cl)cc1)NCCc1c[nH]c2ccccc12 | inactive |
| O=C(Nc1ccc(N2CCCCC2)c(S(=O)(=O)Nc2ccccc2Cl)c1)c1cccnc1 | active: 12.6 µM |
| CN1CCN(c2ccccc2NC(=O)c2ccc([N+](=O)[O-])o2)CC1 | inconclusive [inhibitor, full curve] |

| Structure (SMILES) | Potency |
| --- | --- |
| O=C(Nc1nc(-c2ccccc2Cl)cs1)c1cccnc1 | active: 31.6 µM |
| COc1ccc(/C=C/C(=O)c2cc(Cl)cc(Cl)c2O)c(OC)c1 | inconclusive [inhibitor, partial curve] |
| CCOC(=O)N1CCC(N(CCN(C)C)C(=S)Nc2ccc(Oc3ccccc3)cc2)CC1 | active: 11.2 µM |
| COC(=O)Cn1ncc2c3ccccc3n(Cc3ccccc3)c2c1=O | inactive |
| Cc1ccc(NC(=S)NNC(=O)c2ccccc2O)c(C)c1 | inactive |
| COCC(=O)N1CCC(Oc2ccc(C(=O)NCCCC3CCCC3)cc2)CC1 | inconclusive [inhibitor, single point] |
| COc1ccc(-c2csc(NC(CO)c3nc4ccccc4n3CCCO)n2)cc1 (centres undefined) | inconclusive [inhibitor, partial curve] |
| COc1ccc(C2=NOC(CNC(N)=S)C2)cc1 (centres undefined) | inactive |
| COc1ccc(S(=O)(=O)N2CCN(CCc3ccccc3)CC2)c(OC)c1 | inconclusive [inhibitor, full curve] |
| Cc1c(/C=N/NC(=O)c2cccnc2)c2ccccn2c1C(=O)c1ccc(F)cc1 | inactive |
| O=C(COc1ccc(Br)cc1)Nc1ccc(S(=O)(=O)Nc2ccccn2)cc1 | inactive |
| Cc1cc(NC(=O)NC(=O)c2ccccc2NC(=O)CN)ccc1Oc1ncc(Br)cn1 | inconclusive [inhibitor, full curve, poor fit] |
| CC(=O)c1ccc(N2CCC(c3cc(-c4ccc(Cl)cc4Cl)n[nH]3)CC2)c([N+](=O)[O-])c1 | active: 11.2 µM |
| O=c1cc(CSc2nnnn2-c2ccccc2)nc(Nc2ccc(F)cc2)[nH]1 | inconclusive [inhibitor, partial curve] |
| Cc1nc2c(=O)n(C)c(=O)nc-2n(C)n1 | active: 0.562 µM |
| COCCNC(=O)c1onc(CSc2cc(C)cc(C)c2)c1C(=O)O | inactive |
| Cc1csc2nc(NC(=O)c3ccccc3)sc(=O)c12 | inconclusive [inhibitor, single point] |
| O=C(Nc1nc2ccccc2n1CCN1CCOCC1)c1ccccc1 | inactive |
| COc1ccc(-c2cc(C(F)(F)F)n3nc(C(=O)NCc4ccco4)cc3n2)cc1 | inconclusive [inhibitor, partial curve] |
| C[C@@H](C(=O)NCCc1ccc(F)cc1)N1C(=O)N2CCc3c([nH]c4ccccc34)[C@@]2(C)C1=O | inconclusive [inhibitor, full curve, poor fit] |
| CCN(CC)CCNC(=O)c1ccc(NC(=O)c2cc(-c3ccco3)nc3ccccc23)cc1 | inconclusive [inhibitor, partial curve] |
| Cc1ccc(NC(=O)C2CCN(S(=O)(=O)c3ccc4c(c3)NC(=O)C(C)S4)CC2)cc1Cl (centres undefined) | inconclusive [inhibitor, full curve] |
